Results published in the supplement of paper PMC4967469.
By IC50 is meant the dose at which the fit gives 50% viability; a fit beyond the top or the lowest dose is shown as a bound at that dose. AUC is the area under the same curve over the 256-fold range up to the top dose, as a fraction; the more sensitive the line, the further below 1. For part of these data: Where the top dose is marked as inferred, it comes from the curve model; the source does not state it.

Key:
Assay in all cases: Viability of human cancer cell lines after 72 h of drug (GDSC screen)
Temsirolimus = compound: CO[C@H]1C[C@@H]2CC[C@@H](C)[C@@](O)(O2)C(=O)C(=O)N2CCCC[C@H]2C(=O)O[C@H]([C@H](C)C[C@@H]2CC[C@@H](OC(=O)C(C)(CO)CO)[C@H](OC)C2)CC(=O)[C@H](C)/C=C(\C)[C@@H](O)[C@@H](OC)C(=O)[C@H](C)C[C@H](C)/C=C/C=C/C=C/1C [Temsirolimus]; conditions: top dose 0.2 µM
Protocol: (§1)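 Human cancer cell lines in 384-well plates, medium with 10% serum, drug for 72 h over a 256-fold dose range (nine 2-fold or five 4-fold steps up to the top dose). Adherent lines were fixed and stained with the nucleic acid dye Syto60, suspension lines read with resazurin; signal relative to control wells, capped at 0 and 100%. One two-parameter sigmoid per drug and line, fitted in a mixed model over all curves with the slope shared within a line.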

XMD15-27 = compound: C=CC(=O)Nc1ccc(C(=O)c2sc(Nc3ccc(N4CCN(C)CC4)cc3OC)nc2N)cc1 [XMD15-27]; conditions: top dose 10.24 µM; top dose inferred
Protocol: as §1

SL 0101-1 = compound: CC(=O)O[C@@H]1[C@@H](OC(C)=O)[C@@H](O)[C@H](Oc2c(-c3ccc(O)cc3)oc3cc(O)cc(O)c3c2=O)O[C@H]1C [SL 0101-1]; conditions: top dose 10 µM; top dose inferred
Protocol: as §1

| Cell Line | AUC (Temsirolimus) | IC50 (Temsirolimus) [µM] | AUC (XMD15-27) | IC50 (XMD15-27) [µM] | AUC (SL 0101-1) | IC50 (SL 0101-1) [µM] |
| --- | --- | --- | --- | --- | --- | --- |
| HCC-44 (lung adenocarcinoma, adherent) | 0.841 | 0.134 | 0.97 | > 10.2 | 0.984 | > 10 |
| HCC-56 (large intestine, adherent) | 0.98 | > 0.2 | 0.975 | > 10.2 | 0.987 | > 10 |
| HCC-78 (lung adenocarcinoma, adherent) | 0.935 | > 0.2 | 0.983 | > 10.2 | 0.969 | > 10 |
| HCC-827 (lung adenocarcinoma, adherent) | 0.866 | > 0.2 | 0.97 | > 10.2 | 0.942 | > 10 |
| HCT-15 (large intestine, adherent) | 0.87 | > 0.2 | 0.984 | > 10.2 | 0.987 | > 10 |
| HD-MY-Z (Hodgkin lymphoma, adherent) | 0.543 | 0.0164 | 0.951 | > 10.2 | 0.986 | > 10 |
| HDLM-2 (Hodgkin lymphoma, suspension) | 0.863 | 0.169 | 0.988 | > 10.2 | 0.988 | > 10 |
| HDQ-P1 (breast, adherent) | 0.974 | > 0.2 | 0.982 | > 10.2 | 0.969 | > 10 |
| HEC-1 (endometrium, adherent) | 0.869 | 0.172 | 0.989 | > 10.2 | 0.985 | > 10 |
| HGC-27 (stomach, adherent) | 0.431 | 0.00833 | 0.988 | > 10.2 | 0.972 | > 10 |
| HH (T-cell leukaemia, suspension) | 0.53 | 0.0155 | 0.932 | > 10.2 | 0.942 | > 10 |
| HL-60 (acute myeloid leukaemia, suspension) | 0.884 | 0.178 | 0.986 | > 10.2 | 0.982 | > 10 |
| HN (head and neck, adherent) | 0.786 | 0.0804 | 0.983 | > 10.2 | 0.942 | > 10 |
| HO-1-u-1 (head and neck, adherent) | 0.628 | 0.0277 | 0.983 | > 10.2 | 0.988 | > 10 |
| HOP-62 (lung adenocarcinoma, adherent) | 0.742 | 0.0613 | 0.984 | > 10.2 | 0.974 | > 10 |
| HSC-2 (head and neck, adherent) | 0.762 | 0.0663 | 0.989 | > 10.2 | 0.977 | > 10 |
| HSC-39 (stomach, suspension) | 0.917 | > 0.2 | 0.962 | > 10.2 | 0.934 | > 10 |
| HT (B-cell lymphoma, suspension) | 0.788 | 0.0801 | 0.986 | > 10.2 | 0.966 | > 10 |
| HT-3 (cervix, adherent) | 0.896 | > 0.2 | 0.977 | > 10.2 | 0.983 | > 10 |
| HT-115 (large intestine, adherent) | 0.976 | > 0.2 | 0.991 | > 10.2 | 0.991 | > 10 |
| HT-1080 (fibrosarcoma, adherent) | 0.556 | 0.0175 | 0.989 | > 10.2 | 0.969 | > 10 |
| HT-1376 (bladder, adherent) | 0.889 | > 0.2 | 0.985 | > 10.2 | 0.984 | > 10 |
| Hey (ovary, adherent) | 0.752 | 0.0632 | 0.98 | > 10.2 | 0.942 | > 10 |
| Hs633T (fibrosarcoma, adherent) | 0.254 | 0.00291 | 0.99 | > 10.2 | 0.992 | > 10 |
| Hs683 (glioma, adherent) | 0.764 | 0.0735 | 0.984 | > 10.2 | 0.962 | > 10 |
| Hs746T (stomach, adherent) | 0.844 | > 0.2 | 0.981 | > 10.2 | 0.98 | > 10 |
| Hs766T (pancreas, adherent) | 0.634 | 0.0331 | 0.983 | > 10.2 | 0.975 | > 10 |
| Hs939-T (melanoma, adherent) | 0.728 | 0.0595 | 0.986 | > 10.2 | 0.986 | > 10 |
| Hs-578-T (breast, adherent) | 0.625 | 0.0283 | 0.987 | > 10.2 | 0.96 | > 10 |
| HuCCT1 (biliary tract, adherent) | 0.892 | > 0.2 | 0.984 | > 10.2 | 0.966 | > 10 |
